Data published in publication PMC12136788.
This is one part of the list.

B1: chr12:68660398:68660499:+|3pUTR|ENSG00000127314|msi1|total|mutant (ssRNA)
RNA: GGGAGUUCUACAGUCCGACGAUCUUGAGGUGGCCAAAUGUAAACUAAAAGCCUUAAUUAAAGUGGUGCAAUUUUGUAUAACUCCGCAUCAGCCGUUCAAUAAAUUUGGAUUGCCAUGCAAGGGCUUGCAUUAUAAUUACUUGCCAACAGAGGAUUGAGCAUCA
B2: chr13:79312715:79312816:-|3pUTR|ENSG00000139746|unk|total|mutant (ssRNA)
RNA: GGGAGUUCUACAGUCCGACGAUCCCUUGUGAUUUAUUAUAAUGCCGCAGCAUACUUAUAAAAGUGGUCUGUGCUGAGUCAGACCGAGAGCCCAGCCCAUCCGAAACACAUCAUAAUUUAAGAAUAUGAUGCAGAAUGCCCUUACAACAGAGGAUUGAGCAUCA
B3: chr7:139306712:139306813:+|3pUTR|ENSG00000157741|msi1|total|mutant (ssRNA)
RNA: GGGAGUUCUACAGUCCGACGAUCAUCUGGGGCUUGCCCUUGGAUUUCACUUGUUAAACACCCUCAAACUUAAAAGAAGAAAACCGAUCUCCAGCUGGUGAAAAUUUUGUGCCCCAAAUAAUAUAUUAAUCCAAGUCUACCAAGCAACAGAGGAUUGAGCAUCA
B4: ENSG00000070961:be:win_401|CDS|ENSG00000070961|bound_else_gene|NA|bound_elsewhere_windowed (ssRNA)
RNA: GGGAGUUCUACAGUCCGACGAUCAUGCACUUUGUGGAGAAGUUUCUGUUGGGGAGGAAGAAGGUGAAGGUGAAACUGGUUGGAUUGAAGGAGCUGCAAUCCUCUUGUCUGUAGUGUGUGUGGUGUUAGUAACAGCUUUCAAUGCAACAGAGGAUUGAGCAUCA
B5: chr11:35231115:35231675:+|3pUTR|ENSG00000026508|msi1|FALSE|unique (ssRNA)
RNA: GGGAGUUCUACAGUCCGACGAUCCAGGACAAGGUUCAAAAUGGUUACAACAGCCUCUACCUGUCGCCCCAGGGAGAAAGGGGUAGUGAUACAAGUCUCAUAGCCAGAGAUGGUUUUCCACUCCUUCUAGAUAUUCCCAAAAAGCAACAGAGGAUUGAGCAUCA
B6: chr4:175634378:175634624:-|3pUTR|ENSG00000150625|msi1|FALSE|unique (ssRNA)
RNA: GGGAGUUCUACAGUCCGACGAUCUUUCUUAUGUUUUGAAAAGAAAAUAGCUUUUUAUACUUUUUAGUUUUGAUUUCGGUAACUAGUUUAACUACAGGUAACCUUCAAAGGGACCAUUGUACAUUAUGAACAAUAGAUAGAGAUCAACAGAGGAUUGAGCAUCA
B7: ENSG00000175727:stop:overlap|stop_codon|ENSG00000175727|stop_codon|NA|stop_codon (ssRNA)
RNA: GGGAGUUCUACAGUCCGACGAUCAGCUGCCAGAGCAGGCGUCCAAGGCUGUCACCAGGAUUGGCAAGAGAUUGGGAGAGUCCUAGCUGCUUAGCUGGCAUGUGGCCGCAUGAGAUGCCAGGAGACCCUUCCCUGCCCAUGGAGCAACAGAGGAUUGAGCAUCA
B8: chr7:7234405:7234460:+|CDS|ENSG00000106392|msi1_unk|total|mutant (ssRNA)
RNA: GGGAGUUCUACAGUCCGACGAUCAAUUUUUUAACCUUCCUCUGUGGAUCAGCAACCGGAUUUCUUUUAUGUUCUCAGCUAUUCCGUAUUUUGUUGGGAGAAAAGGUUGACACCCAGCCUAAUGUUCUUCAUAAUGAUCCUCAUCAACAGAGGAUUGAGCAUCA
B9: chr14:92688591:92688692:+|3pUTR|ENSG00000100599|msi1|FALSE|unique (ssRNA)
RNA: GGGAGUUCUACAGUCCGACGAUCUCCCCAUGAGUCCCCCACACCCACCCCAUCCUCGGUCUUUGCAAAGAAGGGCCCGAGCUUAGUUUCCCCAGGACUGGCCUAGGAAGGAGCACCGGCCACAGCUGCUCCCCGUGCCACUCACAACAGAGGAUUGAGCAUCA
B10: chr6:15520333:15520434:+|3pUTR|ENSG00000008083|unk|FALSE|unique (ssRNA)
RNA: GGGAGUUCUACAGUCCGACGAUCCUUGCUGUAGGAUUCAAGCUGUCUUUGCACUAGCUCUAAAGAAGAUUUUCUUCUGGUUUUAGAGAACUAAUUUUGUUUUAGCAUUAAACUGUUGAACUUUUUUUUGUACUUAGAAAACCUCAACAGAGGAUUGAGCAUCA
B11: chr2:209733988:209734100:+|3pUTR|ENSG00000078018|unk|total|mutant (ssRNA)
RNA: GGGAGUUCUACAGUCCGACGAUCUCUGAUAAUUCCCGAGCCUGUUACCACCGAAAGGCAUUUCUUCAAUGGCUGGUUGCCGUCCGUUCAUGUUUUUCAAUCAAAUUUGCAAAUGUAUUUGUUGCUGUACCGUGAUUGUUUUGCCAACAGAGGAUUGAGCAUCA
B12: chr8:80637648:80637749:-|3pUTR|ENSG00000164684|unk|total|mutant (ssRNA)
RNA: GGGAGUUCUACAGUCCGACGAUCUGCGCUCCGCUGCAAAGUGCCUGUCAGCAGCUCCAGGCACCAACAAGGUGCCCUUUUAUCCGACAAUUCCUGCCCGAACAUAACCAUAUUGCAGAUGAAAAUUUUCAACCGAGAAUGACACAACAGAGGAUUGAGCAUCA
B13: ENSG00000198589:be:win_8251|CDS|ENSG00000198589|bound_else_gene|NA|bound_elsewhere_windowed (ssRNA)
RNA: GGGAGUUCUACAGUCCGACGAUCCUCUUCUGUACAUUCAGUGUGAAUGGAAAACUCCAGGCCACGAUGGAAACAGAUGAUAACAUAAGAGCCAUCCAGCUGAGCCGAGAUGGGCAGUACCUGCUCACAGGAGGAGACAGAGGACAACAGAGGAUUGAGCAUCA
B14: chr8:41263181:41263319:-|3pUTR|ENSG00000104332|msi1|total|mutant (ssRNA)
RNA: GGGAGUUCUACAGUCCGACGAUCCUUAAGUGAUUUGCCUGUAAUUUUGGAUGAUUAAAAAAUGUGUAUAUAUAUCCGCUAAUCCGAAAUAUUCUACUUCUCUGUUGUCAAACUGAAAUUCAGAGCAAGUUCCUGAGUGCGUGGCAACAGAGGAUUGAGCAUCA

Target: MSI1 full-length (mouse, UniProt Q61474 1-362)
Assay: nsRBNS (natural sequence RNA bind-n-seq); RBNS binding buffer (assumed for nsRBNS): 25 mM Tris pH 7.5, 150 mM KCl, 3 mM MgCl2, 0.01% Triton X-100, 500 ug/ml BSA, 20 U/ml SUPERase-In, 4 C; UNK is unkempt and MSI1 is Musashi-1; names of the RNAs are library labels; protein concentration not given here; high values mean tight binding

Chain of UniProt Q61474 (Q61474 whole entry): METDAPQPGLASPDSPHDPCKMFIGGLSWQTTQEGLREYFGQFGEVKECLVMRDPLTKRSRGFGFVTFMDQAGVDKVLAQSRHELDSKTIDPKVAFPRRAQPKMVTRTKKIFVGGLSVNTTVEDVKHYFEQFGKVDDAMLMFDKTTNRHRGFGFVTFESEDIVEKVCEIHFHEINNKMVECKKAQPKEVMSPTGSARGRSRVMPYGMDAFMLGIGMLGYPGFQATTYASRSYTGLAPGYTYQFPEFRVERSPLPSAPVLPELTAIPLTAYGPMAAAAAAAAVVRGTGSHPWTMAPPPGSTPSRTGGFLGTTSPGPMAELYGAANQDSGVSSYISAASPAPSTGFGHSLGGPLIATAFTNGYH

| Binder | binding signal |
| --- | --- |
| B1 | 0.349 enrichment R |
| B2 | 1.96 enrichment R |
| B3 | 0.746 enrichment R |
| B4 | 1.61 enrichment R |
| B5 | 0.641 enrichment R |
| B6 | 11.1 enrichment R |
| B7 | 0.818 enrichment R |
| B8 | 0.347 enrichment R |
| B9 | 0.67 enrichment R |
| B10 | 3.97 enrichment R |
| B11 | 0.236 enrichment R |
| B12 | 0.515 enrichment R |
| B13 | 0.336 enrichment R |
| B14 | 0.429 enrichment R |
